The supplement of paper PMC12217912
The list shows a part of the results. The full chains were built here from the parent and the listed change. Values near 0.05 are background.

B1: TEV protease; numbered along this chain (parent)
chain: MGESLFKGPRDYNPISSSICHLTNESDGHTTSLYGIGFGPFIITNKHLFRRNNGTLVVQSLHGVFKVKDTTTLQQHLVDGRDMIIIRMPKDFPPFPQKLKFREPQREERICLVTTNFQTKSMSSMVSDTSCTFPSGDGIFWKHWIQTKDGQCGSPLVSTRDGFIVGIHSASNFTNTNNYFTSVPKNFMELLTNQEAQQWVSGWRLNADSVLWGGHKVFMVKPEEPFQPVKEATQL

Variants of: B1
Experiment: raw area under fraction-flipped curve 0-4 h after induction (AUC4h, not background-subtracted), DNA-recorder readout of cleavage of the substrate (dimensionless); higher = more cleavage of the substrate by the protease variant
Details: temperature: 34 °C; time window: 0-4 h after rhamnose induction
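Also: Bxb1 expression induced with 0.2% (w/v) L-rhamnose at OD600 near 0.5, cultures sampled hourly, flipped fraction per protease–substrate barcode pair counted by paired-end Illumina sequencing.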

Variant | area with substrate DNLYFQS | area with substrate INLYFQS | area with substrate KNLYFQS | area with substrate LNLYFQS | area with substrate MNLYFQS | area with substrate PNLYFQS | area with substrate RNLYFQS | area with substrate SNLYFQS | area with substrate TNLYFQS | area with substrate VNLYFQS | area with substrate WNLYFQS | area with substrate YNLYFQS | area with substrate GNLYFQS | area with substrate HNLYFQS | area with substrate NNLYFQS | area with substrate FNLYFQS | area with substrate QNLYFQS | area with substrate CNLYFQS
L56I | 0.0597 | 0.0689 | 0.0474 | 0.0661 | 0.0599 | 0.0613 | 0.0538 | 0.0707 | 0.0606 | 0.0744 | 0.0498 | 0.021 |  |  |  |  |  | 
S16C | 0.062 | 0.0804 | 0.0593 | 0.0596 |  | 0.0497 |  |  | 0.0668 |  | 0.0636 | 0.0696 | 0.0683 | 0.0636 | 0.0602 |  |  | 
S32D | 0.077 | 0.0589 | 0.0772 | 0.063 | 0.0613 | 0.0551 | 0.0576 |  | 0.0432 | 0.0488 | 0.0488 | 0.0618 | 0.0612 | 0.0568 | 0.046 | 0.0557 |  | 
P104T | 0.0431 | 0.0696 |  | 0.0567 |  | 0.063 |  |  | 0.0529 |  | 0.0529 | 0.0463 | 0.0396 | 0.0384 |  |  |  | 
P104D | 0.0537 |  | 0.0567 |  | 0.0534 | 0.0466 | 0.0655 | 0.0528 | 0.056 |  | 0.0494 |  | 0.0313 | 0.0514 |  |  |  | 
D128R | 0.118 | 0.0809 | 0.0652 |  |  | 0.0735 | 0.0664 |  |  |  | 0.065 |  | 0.0742 | 0.0716 |  |  | 0.0814 | 
D128A | 0.0935 | 0.0494 | 0.0742 | 0.0697 |  |  |  | 0.0776 |  |  | 0.0564 |  | 0.105 | 0.0612 |  |  |  | 
E224N | 0.0824 |  | 0.063 | 0.0633 |  | 0.0692 |  |  | 0.0623 | 0.0634 | 0.0713 |  | 0.0489 | 0.0696 | 0.0706 | 0.0682 |  | 0.0694
E224Y |  | 0.0495 | 0.0127 | 0.0641 | 0.0789 |  |  | 0.0659 | 0.0791 |  | 0.0464 |  |  | 0.0568 |  | 0.0606 |  | 0.0574
E224R |  | 0.075 |  |  |  | 0.0437 |  | 0.0726 | 0.0667 |  |  | 0.0601 |  | 0.0656 |  |  |  | 0.0441
E224C | 0.0755 | 0.0591 | 0.0768 | 0.0667 | 0.0791 | 0.0681 |  | 0.0601 | 0.0597 | 0.0762 | 0.0642 | 0.0585 |  | 0.071 |  |  |  | 0.0724
E224K | 0.081 | 0.0521 | 0.0901 | 0.0408 | 0.0568 | 0.0643 | 0.0652 | 0.0789 |  |  | 0.0613 | 0.0739 | 0.0474 | 0.0678 | 0.053 | 0.0576 |  | 0.0579
P96M | 0.0618 |  |  | 0.0675 | 0.0567 | 0.0525 |  | 0.0693 |  |  | 0.0547 | 0.0717 | 0.0687 | 0.0657 |  |  | 0.0611 | 
T72C | 0.106 | 0.0496 | 0.0752 |  | 0.0562 | 0.0481 |  |  | 0.0744 |  | 0.0674 |  | 0.0623 | 0.0489 | 0.0606 |  |  | 
T72R | 0.066 |  | 0.0893 | 0.0497 |  | 0.0909 |  |  | 0.104 |  |  | 0.0599 |  | 0.0678 | 0.0638 | 0.0732 |  | 
C152D | 0.0398 |  |  |  | 0.0301 | 0.0574 |  | 0.0447 | 0.0572 |  | 0.0541 | 0.0588 |  | 0.0578 |  | 0.0854 |  | 
L48K | 0.0563 | 0.0504 | 0.0591 | 0.0417 | 0.0495 | 0.0633 |  | 0.0663 | 0.0547 |  | 0.0572 | 0.0524 |  | 0.0594 | 0.0461 | 0.0515 | 0.0668 | 

Variant | area with substrate DNLYFQS | area with substrate INLYFQS | area with substrate KNLYFQS | area with substrate LNLYFQS | area with substrate MNLYFQS | area with substrate PNLYFQS | area with substrate RNLYFQS | area with substrate SNLYFQS | area with substrate TNLYFQS | area with substrate VNLYFQS | area with substrate WNLYFQS | area with substrate YNLYFQS | area with substrate GNLYFQS | area with substrate HNLYFQS | area with substrate NNLYFQS | area with substrate FNLYFQS | area with substrate QNLYFQS | area with substrate CNLYFQS
L48N | 0.0544 | 0.0573 | 0.0494 | 0.0579 | 0.0635 | 0.0553 |  | 0.055 | 0.0379 | 0.0685 | 0.0656 | 0.0605 | 0.0598 | 0.05 |  | 0.0652 |  | 
T176V | 0.0825 |  |  | 0.0586 |  |  |  |  |  |  |  | 0.0579 |  |  |  |  |  | 
L112Y | 0.0665 |  | 0.0654 | 0.0544 | 0.0542 |  |  | 0.0567 | 0.0591 |  | 0.0554 | 0.0481 | 0.0639 | 0.0688 | 0.072 | 0.065 |  | 
L112S | 0.0418 | 0.0542 |  | 0.0541 | 0.0478 | 0.0645 |  |  | 0.0575 |  | 0.055 | 0.0447 |  | 0.0352 | 0.0622 |  |  | 
H168G | 0.0586 |  | 0.0701 |  |  | 0.0586 |  | 0.0753 |  |  |  |  | 0.0576 | 0.0567 |  |  |  | 
K120Y | 0.0723 | 0.0451 | 0.0646 |  | 0.0566 |  |  | 0.0381 | 0.0661 |  | 0.061 | 0.057 | 0.0681 | 0.0635 |  |  |  | 
K120G | 0.0668 |  | 0.0285 |  |  | 0.05 |  |  | 0.0681 |  | 0.0689 |  | 0.076 | 0.0696 |  | 0.0791 | 0.0524 | 
V64W | 0.0645 |  | 0.0574 | 0.0563 |  | 0.0686 |  |  | 0.0774 | 0.0834 | 0.0614 |  |  |  | 0.0522 |  |  | 
V64L | 0.0647 | 0.0626 |  | 0.0677 | 0.0694 | 0.0326 |  |  | 0.0384 |  |  | 0.0572 | 0.0509 | 0.0903 |  |  |  | 
W144V | 0.0574 |  |  | 0.0716 |  | 0.0646 |  |  |  |  | 0.0677 | 0.0649 |  | 0.0645 | 0.0636 | 0.0557 |  | 
A232F |  |  |  | 0.0793 | 0.0607 |  |  | 0.0634 | 0.06 | 0.0683 | 0.083 |  |  | 0.0507 |  | 0.0704 |  | 0.0596
A232H |  |  |  |  | 0.0582 |  |  | 0.0549 | 0.0638 |  | 0.0845 |  | 0.0811 | 0.0746 |  |  |  | 0.0573
A232G |  |  |  | 0.0644 | 0.0678 |  |  |  |  |  | 0.0602 |  |  | 0.0752 |  | 0.0731 | 0.0647 | 0.0606
A232M |  | 0.067 | 0.0691 |  |  | 0.0635 |  | 0.0765 |  | 0.0619 |  | 0.0753 | 0.073 | 0.0582 | 0.0643 |  |  | 0.0565
A232T |  |  | 0.061 |  |  |  |  |  | 0.0684 |  | 0.0552 |  | 0.065 |  |  |  |  | 0.0673
A232C |  | 0.0656 | 0.0844 | 0.0566 |  | 0.069 |  |  | 0.0697 |  | 0.0578 | 0.0773 |  |  |  | 0.0619 | 0.0622 | 0.0635
P184W | 0.0584 | 0.0433 | 0.0646 | 0.0617 |  | 0.0572 |  | 0.0289 | 0.053 |  | 0.0486 | 0.0577 | 0.0625 | 0.0558 | 0.0643 | 0.0513 |  | 
